According to the supplement of paper PMC3334620:
Whole data set: some 33,000 sequences, median “E-score (-0.5 to 0.5)” near -0.036, cut for the highest 2% near 0.37. This is one part of the list.

These sequences were tested against T1, Yer064c (UniProt P40041) (assay: PBM E-score (8-mer binding enrichment) (E-score (-0.5 to 0.5)); higher = stronger / more preferred TF binding; most listed sequences are background and not binding sites). Conditions: protein concentration: 200 nM; construct: GST-full length.
T1 sequence: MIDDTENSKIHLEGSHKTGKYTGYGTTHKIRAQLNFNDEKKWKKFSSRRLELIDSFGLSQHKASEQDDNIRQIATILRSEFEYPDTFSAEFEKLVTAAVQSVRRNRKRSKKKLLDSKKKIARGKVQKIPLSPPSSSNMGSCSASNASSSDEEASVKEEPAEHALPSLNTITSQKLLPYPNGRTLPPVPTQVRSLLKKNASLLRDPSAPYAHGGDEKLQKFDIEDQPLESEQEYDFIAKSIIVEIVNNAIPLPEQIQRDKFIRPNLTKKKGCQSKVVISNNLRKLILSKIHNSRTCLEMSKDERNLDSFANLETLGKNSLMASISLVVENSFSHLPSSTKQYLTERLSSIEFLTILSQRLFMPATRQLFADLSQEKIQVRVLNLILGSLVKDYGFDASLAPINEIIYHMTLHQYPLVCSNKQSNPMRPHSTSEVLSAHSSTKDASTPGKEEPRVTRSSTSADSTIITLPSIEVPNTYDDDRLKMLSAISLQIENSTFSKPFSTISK
In short: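 Using PURExpress in vitro transcription/translation, GST-tagged yeast transcription factors were made in full-length or DNA-binding-domain form. These were applied at about 100-200 nM to double-stranded universal all-10-mer Agilent arrays, and bound protein was detected with fluorescent anti-GST. Scans were normalised with masliner before the Universal PBM Analysis Suite assigned E-scores to ungapped eight-base words pooled with their reverse complements.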

Sequence | PBM E-score
ACACGTCA | 0.00607
ATTCCTCA | 0.104
CCGAAACA | -0.0615
ACGCATAA | -0.00233
ACACATTA | 0.228
GCCACTAC | -0.145
AGCCCTGG | -0.285
GGCCCTCA | -0.237
GGCACGTA | -0.174
AGTCGGAG | 0.245
ATACGGGG | -0.128
CTTTCGAC | -0.0335
GCAACGGC | -0.175
AAACTGGC | -0.074
ATCAGAAC | 0.127
CCTTGCGA | -0.131
AGGGGGTA | -0.235
AGCTGGCA | -0.216
ATTATACC | 0.106
TGACCCAA | 0.222
CTCTAGTC | 0.313
ATATTGCA | -0.082
TAGCCAAA | 0.0577
AGTGCATG | -0.00556
GCCTTCAA | -0.0385

Sequence | PBM E-score
ATATCGCC | 0.0619
CAACCGTC | -0.198
ACTTTCAC | 0.161
AACACACT | 0.0687
CCTAGCGC | -0.0308
ACAAAGCT | -0.0467
AATAGTAG | -0.149
CGCAATTA | 0.0407
GTTTGATA | 0.173
GTCATACA | 0.374
AAAGTACG | 0.12
AACACTTA | -0.187
GCGAAAAC | -0.131
CATGGATA | 0.139
AATAACGT | -0.0458
ATAACAGG | -0.0906
CGTTAACA | -0.118
CGGGAGTC | 0.413
GAGCTAGC | -0.0727
AAGATGAG | 0.154
CTCGCTAC | -0.0508
GATAGTGA | 0.0967
CCAAGGGG | -0.202
AAACCATA | 0.132
GAGCCATA | 0.366

Sequence | PBM E-score
CCACGCGA | 0.054
AAGAGCAC | -0.114
CGTGTCGC | -0.0748
ACAATTAA | 0.144
CACCAACC | -0.0246
ACAGTCAG | 0.378
CAATCAGA | 0.208
AGAAGCGA | 0.0498
CACACTGG | -0.101
CATCATTC | 0.0981
TGTAGTAA | -0.0199
AATTGAAA | 0.0954
ATGTGAAG | -0.0882
GATAATCA | 0.384
CACTGAGG | -0.227
ATTCTGAC | 0.242
GCTCTAAC | -0.0641
CCAGAATC | 0.0913
CTCGGCTC | 0.145
CAGAAGTA | -0.00734
GCAGCCAA | -0.0571
CATGGGGC | -0.135
ATGAGTGA | 0.283
AGGTAAGC | -0.252
TCAACCCA | 0.0176

Sequence | PBM E-score
CCAGCCGG | -0.295
TCAGTGGA | 0.0611
ACAAACGA | 0.142
TCAAAAAA | 0.16
TGCACGAA | 0.144
AGTGATAG | -0.175
AAGTAACT | -0.0527
ACTGTTAT | 0.0549
ATCTGCAT | 0.105
GCCTCACA | 0.0503
CGAGTTGC | -0.095
ATCGACCG | -0.233
CGAAATCA | 0.309
CGAGAAGA | -0.12
AAGGCGAT | -0.0384
CTGGGCGA | -0.00955
ATCGCGAA | 0.018
GCCTTGAC | 0.121
AAGTAACA | -0.0958
AAAAAGGT | -0.0086
ACTACGAG | 0.219
CCTGCTCA | -0.254
CCGCTGAA | -0.165
AATCGCAT | 0.184
ATTGAAGC | -0.121

Sequence | PBM E-score
CCAACACA | 0.0809
TATTTGAA | 0.0204
AAGGTCTA | -0.0108
CTTAGACA | 0.00308
ACTCATAC | 0.393
CTAGTAGC | 0.0434
CCAGCGGC | -0.173
GCCCAGAA | -0.213
CCTTAGCG | 0.0566
CGGTGACG | -0.147
GCGCGCAC | -0.233
CTCATCTC | 0.145
ATAACTAT | -0.0464
TACTAATA | -0.1
GGCATGAC | 0.192
CGCCTCAA | -0.2
AATGCGTG | 0.0168
AATCCGGA | 0.0502
CACTTTTA | 0.154
CGTGTGTA | 0.137
GTTAGACA | 0.238
AACGCGAA | 0.0663
GTCGAGTA | 0.125
AGTGAGTA | 0.355
ACGCCGCC | -0.215

Sequence | PBM E-score
GGCTCTTA | -0.00753
AACCTCAA | -0.0197
CATATGCG | -0.0676
CGTATTTC | -0.122
GTCCGGTA | 0.0355
ATTTACCG | -0.181
ATGGGGTA | 0.0384
TCGGAAGA | -0.0232
ATGGATCC | -0.0679
GATTCGAC | 0.218
CGAGGACG | -0.0584
GGGTTGTA | -0.0784
GTACCAAA | -0.0721
TGCGCGAA | 0.0115
TCCATCGA | 0.00298
AAATCGCG | -0.00381
GGTAGAGA | -0.109
TCTACTAA | 0.072
CAATACCA | -0.0843
ACGGAGCA | -0.213
ACTTTACT | 0.159
CCTCCACC | -0.286
CAACTGGC | -0.183
ACGATCAA | 0.0214
GAGATCGA | 0.014

Sequence | PBM E-score
GCTGACCC | -0.0551
GCGGCGAA | -0.17
GGGCTTAA | -0.135
ATTGTAGA | 0.174
TAGTAGAA | -0.185
CTGGGGAC | -0.0825
GGGGTACC | -0.201
ATACAGTG | -0.0455
ACTTGGTA | 0.0514
AGTTATTC | 0.00866
AAGCCTTA | -0.0159
GTCGTGCA | 0.0025
AAAGACTG | 0.157
CCATACGC | -0.0241
AGTGGTTA | 0.0866
AGGGTAGG | 0.0272
GAACTGGC | -0.298
ACTACGCG | 0.175
AGAAGAGC | -0.288
CCGAATCG | -0.135
AGACCACA | 0.0805
AAACGTCG | -0.226
